Test results reported in the supplement of paper PMC7826260.
The other results are listed elsewhere or left out. The data describe in vitro nicking of single-stranded DNA by Rep domains at 3 µM enzyme and 37 °C for 1 h; the strands have 90 letters, of which the middle is given. Uncut reads are compared with the no-enzyme pool on a log2 scale; uncut sequences lie near 0, cut ones below; no hit call is given. Because reads are shares of a total, they shift together; uncut strands gain when others are lost, and binding without cutting may add a little.

Tested on: T1, Rep nickase domain of tomato golden mosaic virus
T1 sequence (residues 1-124, tag not shown): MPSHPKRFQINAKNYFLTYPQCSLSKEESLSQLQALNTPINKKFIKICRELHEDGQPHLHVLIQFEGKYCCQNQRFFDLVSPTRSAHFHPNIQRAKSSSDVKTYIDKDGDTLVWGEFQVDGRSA
Experiment: uncleaved DNA left, log2 of reads against the no-enzyme library (log2 ratio); higher = less cleavage (more negative = more Rep cleavage of the k-mer); sequences stand for … in CTCGTCCG…ACCGGAGA
Experimental: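 A pool of 90-nt single-stranded DNAs with seven random bases just before the constant AC of the nick site (name = the seven bases) was cut by 3 µM recombinant His6-SUMO-tagged Rep nickase domain (300 nM DNA, 50 mM HEPES pH 8.0, 50 mM NaCl, 1 mM MnCl2, 1 h, 37 °C, three replicates). Uncut DNA was amplified and sequenced.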

Row | Sequence | uncleaved DNA left (log2)
1 | CCCTCCC | -0.152
2 | CTCTTTG | -0.114
3 | GAACAGA | 0.109
4 | AGAGACA | 0.0766
5 | CATCCGG | 0.0919
6 | ACCGGGC | 0.0115
7 | CGGTGTC | -0.0863
8 | CAGATTG | 0.196
9 | CGAGGAT | 0.174
10 | ATCACGT | -0.0417
11 | GTATAAA | 0.123
12 | GCCCATG | -0.119
13 | GGCGAGC | 0.136
14 | TGGACTC | -0.122
15 | CTGTCGC | -0.181
16 | GAGGCCC | 0.0436
17 | AACGGAC | 0.0414
18 | GGAGGTA | 0.0939
19 | ATTGAGG | 0.217
20 | GCCGGGT | 0.121

Row | Sequence | uncleaved DNA left (log2)
21 | CGTTTGG | -0.07
22 | CAAGCTG | 0.0123
23 | GCAAGCA | 0.0615
24 | GTAACGC | -0.11
25 | TGGGCTA | -0.101
26 | CCTGATA | -0.132
27 | GGATGAA | 0.0334
28 | AATCAAT | 0.0582
29 | AAATTGC | 0.0246
30 | GTTAGCT | -0.0689
31 | AGGGAAT | -0.00474
32 | ATGCGGC | -0.0744
33 | CCAGTTG | -0.0305
34 | CCGTAAA | -0.00464
35 | ACAAGTG | 0.101
36 | TCCAAGG | 0.194
37 | AACCTGA | 0.191
38 | GGGAAGT | -0.0557
39 | GAGAGGG | 0.216
40 | GAACTGC | 0.0564
